Data from US20140086901A1, “Inhibition of Post-Radiation Tumor Growth” (The Board of Trustees of the Leland Stanford Junior …, priority 2008, published 2014).

Test system: CD11b+ myelomonocytic cells expressing MMP-9
Assay: Immunostaining quantification of CD11b+, MMP-9+, CD31+ and α-SMA in MT1A2 tumors
Type: in vivo, mouse

Structure (SMILES): O=P(O)(O)C(O)(Cn1ccnc1)P(=O)(O)O [ZA, aminobisphosphonate zolendronic acid]
- fraction of CD11b+ cells that were MMP-9+ vs control (MMP-9 KO+WT BM mice): smaller fraction
- number of CD31-expressing vessels vs control tumors (MMP-9 KO+WT BM mice): significantly fewer
- vessels associated with α-SMA vs control tumors (MMP-9 KO+WT BM mice): significantly more
- number of CD11b+ cells in treated vs control tumors (WT+KO BM mice): no significant difference
- percentage of CD31+ tumor vessels associated with α-SMA (WT+KO BM mice): not affected
